# In all, about 360,000 compounds went through this assay and about 25,000 (6.9%) were called active. The shares of active, inactive and inconclusive entries below differ from those in the screen. Calls follow the shape of the dose curve; as a rule, active = well fitted inhibition curve with a large enough effect; inconclusive = small, poorly fitted or top-dose-only effect; inactive = flat fitted curve, though single readings scatter. Potencies of inconclusive entries are doubtful fits and often do not repeat.
# Target: Luciferin 4-monooxygenase (Photinus pyralis) (UniProt P08659)
# Chain of UniProt P08659 (P08659 whole entry, looked up): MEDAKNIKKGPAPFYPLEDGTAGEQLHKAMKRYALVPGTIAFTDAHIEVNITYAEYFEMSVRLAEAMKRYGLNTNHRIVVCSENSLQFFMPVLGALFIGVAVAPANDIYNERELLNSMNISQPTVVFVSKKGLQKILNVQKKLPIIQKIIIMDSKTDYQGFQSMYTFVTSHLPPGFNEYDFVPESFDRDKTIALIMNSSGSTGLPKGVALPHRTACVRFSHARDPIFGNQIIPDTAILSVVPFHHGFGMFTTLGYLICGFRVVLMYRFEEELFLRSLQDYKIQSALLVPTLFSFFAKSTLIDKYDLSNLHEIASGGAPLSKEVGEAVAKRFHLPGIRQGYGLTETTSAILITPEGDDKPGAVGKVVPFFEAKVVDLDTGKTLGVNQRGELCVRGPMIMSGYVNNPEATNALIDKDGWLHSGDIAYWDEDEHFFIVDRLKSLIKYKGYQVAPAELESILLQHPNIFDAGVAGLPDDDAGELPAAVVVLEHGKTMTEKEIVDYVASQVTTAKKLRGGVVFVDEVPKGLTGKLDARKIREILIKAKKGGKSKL
# Assay: qHTS profiling assay for firefly luciferase inhibitor/activator using purifed enzyme and Km concentrations of substrates (counterscreen for miR-21 project); also: nearly all actives have a fitted effect of over 55% in size;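 as to activity change, negative = inhibition: plate controls were vehicle for no effect and reference inhibitor for full effect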
# Conditions: purified FLuc, luminescence inhibition; activity change, negative = inhibition: at 57.5 µM (top of the series)
# Summary of the method: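 Purified P. pyralis luciferase, 10 nM final, with Km-level 10 uM D-luciferin and 10 uM ATP in 50 mM Tris acetate pH 7.5, 10 mM Mg acetate, 0.01% Tween-20, 0.05% BSA; 6-point qHTS titration about 60 µM downward; luminescence read.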
# Potency is read from the fitted curve at half-maximal effect; tags tell the direction and shape of the fitted curve.
Compound,Potency,"activity change, negative = inhibition"
COCCN(C(=O)c1cccc(N2C(=O)CCC2=O)c1)c1nc(-c2ccc([N+](=O)[O-])cc2)cs1,inactive,
CC(=O)Nc1nc(SCC(=O)NCc2ccc(F)cc2)[nH]c(=O)c1NC(=O)c1cccs1,"inconclusive: 30.1 µM [inhibitor, partial curve, poor fit]",
Cc1csc(NC(=O)COc2ccc3c(c2)CCC3)n1,active: 12 µM,
Cc1cccc(C(=O)NCCc2nc3ccccc3n2CCC(C)C)c1,inactive,
Oc1c(Br)cc(Br)cc1C=NCc1ccc(F)cc1,"inconclusive: 21.3 µM [inhibitor, partial curve]",
O=c1c2sc3ccccc3c2n(Cc2cccc(Cl)c2)c(=O)n1Cc1ccccc1,inactive,
CC(=O)c1sc(NC(=O)c2ccccc2)nc1-c1ccccc1,active: 9.53 µM,
S=C(NCCc1ccccc1)N1CCN(C2CCCCC2)CC1,inactive,
Cc1ccc2nc(NC(=O)c3ccco3)sc2c1,active: 0.269 µM,
CCn1cc(C(=O)NCc2ccc(OC)cc2OC)c(=O)c2ccc(C)nc21,inactive,
COc1cc(NC(=O)NCCc2c(C)nn(C)c2C)cc(OC)c1OC,inactive,
CCOc1ccc(OCC)c(NC(=O)c2cnn(-c3ccc(F)cc3)c2-n2cccc2)c1,inactive,
CCOc1ccc(-c2cc3c(=O)n(Cc4nc(-c5ccc(OCC)c(OC)c5)oc4C)ccn3n2)cc1Cl,inactive,
CC(=O)Nc1ccc(-c2csc(Nc3cc(C)ccn3)n2)cc1,active: 15.1 µM,
COCCn1c(=NC(=O)c2ccc(S(=O)(=O)N3CCCc4ccccc43)cc2)sc2cc(S(C)(=O)=O)ccc21,inactive,
CSc1ccc(C2c3c(-c4ccccc4O)n[nH]c3C(=O)N2Cc2ccncc2)cc1 (stereo not given),"inconclusive: 19 µM [inhibitor, partial curve, poor fit]",
Clc1ccc(C2Nc3cccc4cccc(c34)N2)cc1Cl,active: 23.9 µM,
COc1ccc(Nc2nc3ccc(C)cc3n3cnnc23)cc1Cl,"inconclusive: 8.49 µM [inhibitor, partial curve, poor fit]",
CSCCC(NC(=O)c1ccccc1Cl)C(=O)Nc1cccc(S(=O)(=O)N2CCCC2)c1 (stereo not given),inactive,
N/C(=N\OC(=O)C1CCCCC1)c1cccnc1,active: 19 µM,
O=C(NC1CC1)c1cc(-c2ccc(Br)cc2)nc2ccccc12,"inconclusive: 7.57 µM [inhibitor, partial curve, poor fit]",
COC(=O)Cc1ccc(NC(=S)NCC(C)C)cc1,"inconclusive: 23.9 µM [inhibitor, single point]",
Cc1ccc(C(=O)Nc2ccc3c(c2)OCO3)cc1,active: 1.35 µM,
Cc1nnc(SCC(=O)NC(=O)Nc2ccc3c(c2)OCCO3)n1N,active: 16.9 µM,
O=C(O)CCCCCNC(=O)c1ccccc1Br,"inconclusive: 12 µM [inhibitor, partial curve]",

Compound,Potency,"activity change, negative = inhibition"
Cc1ccc(NC(=O)CSc2ncc(S(=O)(=O)c3ccccc3)c(=O)[nH]2)cc1C,"inconclusive: 37.9 µM [inhibitor, single point]",
COC(=O)c1c(NC(=O)/C=C/C(=O)O)sc(C)c1-c1ccc(C(C)C)cc1,"inconclusive: 37.9 µM [inhibitor, single point]",
O=C(CSc1nc(-c2ccccc2)cs1)NCc1ccco1,"inconclusive: 23.9 µM [inhibitor, partial curve, poor fit]",
COc1cccc(/C=N/NC(=O)c2c(C)nc3ccc(Br)cn23)c1O,"inconclusive: 21.3 µM [inhibitor, single point]",
Fc1ccccc1-c1csc(-c2cccnc2)n1,active: 15.1 µM,
Cn1ccnc1SCC(=O)Nc1cccc(C(F)(F)F)c1,,inactive: 2.21% [at 2.3 µM]
CCN1/C(=C/C=C/c2oc3ccc(-c4ccccc4)cc3[n+]2CC)Oc2ccc(-c3ccccc3)cc21,"inconclusive: 23.9 µM [inhibitor, single point]",
Cc1ccc(S(=O)(=O)NCC(=O)OCC(=O)NCc2ccc3c(c2)OCO3)cc1,inactive,
Cc1cnc(C(=O)N2CCCC(C(=O)c3ccc(C(C)(C)C)cc3)C2)cn1 (stereo not given),"inconclusive: 37.9 µM [inhibitor, partial curve, poor fit]",
O=C(Nc1nncs1)c1ccc(F)c(S(=O)(=O)N2CCCCC2)c1,"inconclusive: 30.1 µM [inhibitor, single point]",
Cc1cc(NC(=O)CSc2nc3ccccc3cc2C#N)no1,"inconclusive: 10.7 µM [inhibitor, partial curve, poor fit]",
CCN1CCc2c(sc(-n3cccc3)c2C(C)NC(=O)Nc2ccc(C(=O)OC)cc2)C1 (stereo not given),inactive,
O=C(CSc1nnc(NC(=O)c2ccc(S(=O)(=O)N3CCOCC3)cc2)s1)Nc1ccccc1C(F)(F)F,"inconclusive: 4.26 µM [inhibitor, partial curve, poor fit]",
O=C(O)c1ccc(N2CCN(Cc3ccc4c(c3)OCO4)CC2)c([N+](=O)[O-])c1,inactive,
COc1ccc(CNS(=O)(=O)c2ccc(-c3cc(C(F)(F)F)on3)s2)cc1OC,inactive,
COc1cccc(NC(=O)c2cc(=O)c3ccccc3o2)c1,"inconclusive: 23.9 µM [inhibitor, partial curve, poor fit]",
COc1cc(C2C=C(C(=O)O)Nc3ncnn32)ccc1O (stereo not given),inactive,
N#Cc1nc(Nc2cc(F)cc(F)c2)c2ncn(CC(F)F)c2n1,"inconclusive: 20 µM [inhibitor, partial curve, poor fit]",
O=C(/C=C/c1ccc([N+](=O)[O-])cc1)NC1CC2CCC1C2 (stereo not given),"inconclusive: 37.9 µM [inhibitor, partial curve, poor fit]",
CCOC(=O)c1cc(-c2ccc(F)cc2)n(CC(=O)NCc2cccnc2)c1C,inactive,
O=C(CSc1nnnn1Cc1ccccc1)Nc1ccc2c(c1)OCCO2,"inconclusive: 26.9 µM [inhibitor, single point]",
O=C(CNC(=O)c1ccccc1F)OCC(=O)c1ccc(Cl)s1,"inconclusive: 37.9 µM [inhibitor, single point]",
O=S(=O)(NC1CCCCC1N1CCN(c2ccc(F)cc2)CC1)c1ccc(Cl)cc1 (stereo not given),inactive,
COc1ccc(-c2onc3ccc(C(C)=O)cc23)cc1,"inconclusive: 6.75 µM [inhibitor, partial curve, poor fit]",
O=C(CSc1nc2ccccc2[nH]1)NCc1ccccc1,inactive,

Compound,Potency,"activity change, negative = inhibition"
COc1ccccc1NS(=O)(=O)c1ccc(N/N=C/c2ccccc2OCC(=O)O)c([N+](=O)[O-])c1,"inconclusive: 37.9 µM [inhibitor, single point]",
O=C(N/N=C\c1ccc(Oc2ccccc2)cc1)c1csnn1,active: 2.69 µM,
Fc1cccc(CN2CCc3nc(Nc4ccc5c(c4)OCCO5)ncc3C2)c1F,"inconclusive: 19 µM [inhibitor, partial curve]",
O=C(CSc1ccc2ccccc2c1)NCCc1ccc(O)c(O)c1,"inconclusive: 26.9 µM [inhibitor, single point]",
CCOC(=O)c1c(-c2ccccc2)oc2ccc(OCc3ccccc3Br)cc12,inactive,
COc1ccc(-c2noc(N3CCC(C(=O)N4CCN(c5cccc(OC)c5)CC4)CC3)n2)cc1,"inconclusive: 21.3 µM [inhibitor, partial curve]",
O=C(NCc1cccs1)c1nc(-c2cccs2)no1,"inconclusive: 19 µM [inhibitor, partial curve, poor fit]",
O=C(COc1cc(F)ccc1[N+](=O)[O-])Nc1ccc2c(c1)OCO2,"inconclusive: 0.675 µM [inhibitor, partial curve, poor fit]",
CCc1ccc(C(=O)Cn2ccsc2=N)cc1,active: 1.35 µM,
COc1cc2ccccc2cc1C(=O)Nc1nc(C)c(C(C)=O)s1,active: 4.78 µM,
CCOc1ccc2ccc(OCC)c(/C=N/n3cnnc3)c2c1,inactive,
COCCN(C(=S)Nc1ccc(C)c(C)c1)C(C)c1ccco1 (stereo not given),"inconclusive: 21.3 µM [inhibitor, partial curve, poor fit]",
COC(=O)Nc1nc2ccc(SC(C)C)cc2[nH]1,"inconclusive: 2.69 µM [inhibitor, full curve]",
Cc1cccc(N2CCN(C(=O)CCS(=O)(=O)c3ccc4c(c3)CC(=O)N4C)CC2C)c1 (stereo not given),inactive,
O=C(Nc1nncs1)C1CC(=O)N(CCc2ccc(F)cc2)C1 (stereo not given),inactive,
CC(=O)N1CCN(c2csc3ccc(Cl)cc3c2=O)CC1,"inconclusive: 21.3 µM [inhibitor, partial curve]",
O=C(NCc1ccccc1Cl)C1CCN(S(=O)(=O)N2CCCCC2)CC1,"inconclusive: 19 µM [inhibitor, partial curve]",
Cc1ccc(Cl)c(Nc2ccccc2C(=O)O)c1Cl,"inconclusive: 16.9 µM [inhibitor, partial curve]",
O=C(O)/C=C\C(=O)NNC(=O)c1cc(-c2ccccc2)n[nH]1,active: 10.7 µM,
O=C(Nc1ccc(N2CCOCC2)c(Cl)c1)c1cccnc1,"inconclusive: 19 µM [inhibitor, partial curve]",
CCc1nonc1NC(=O)COc1ccc(Cl)c(C)c1,"inconclusive: 33.8 µM [inhibitor, single point]",
CC1CCc2c(sc3ncnc(NS(=O)(=O)c4cccs4)c23)C1 (stereo not given),active: 15.1 µM,
Cc1c(NC(=O)/C=C/c2cn(-c3ccccc3)nc2-c2ccccc2)c(=O)n(-c2ccccc2)n1C,active: 21.3 µM,
Cc1c(CC(=O)NCC(=O)O)c(=O)oc2cc3oc4c(c3cc12)CCCC4,active: 15.1 µM,
Oc1cccc(/C=N/NC(=S)Nc2cccnc2)c1O,"inconclusive: 10.7 µM [inhibitor, single point]",

# Reference: PubChem BioAssay AID588342 (National Center for Advancing Translational Sciences (NCATS), 2011)
